Hit rate of the full screen: of about 310,000 compounds, about 2,200 (0.71%) showed an effect of 50% or more. Effects have a minus sign here. This is one part of the list.
The compounds below were run against human ether-à-go-go-related gene (hERG) potassium channel (human, UniProt Q12809) (assay: primary screen, population patch clamp on CHO cells stably expressing hERG).
Sequence of human ether-à-go-go-related gene (hERG) potassium channel (Q12809 whole entry, looked up): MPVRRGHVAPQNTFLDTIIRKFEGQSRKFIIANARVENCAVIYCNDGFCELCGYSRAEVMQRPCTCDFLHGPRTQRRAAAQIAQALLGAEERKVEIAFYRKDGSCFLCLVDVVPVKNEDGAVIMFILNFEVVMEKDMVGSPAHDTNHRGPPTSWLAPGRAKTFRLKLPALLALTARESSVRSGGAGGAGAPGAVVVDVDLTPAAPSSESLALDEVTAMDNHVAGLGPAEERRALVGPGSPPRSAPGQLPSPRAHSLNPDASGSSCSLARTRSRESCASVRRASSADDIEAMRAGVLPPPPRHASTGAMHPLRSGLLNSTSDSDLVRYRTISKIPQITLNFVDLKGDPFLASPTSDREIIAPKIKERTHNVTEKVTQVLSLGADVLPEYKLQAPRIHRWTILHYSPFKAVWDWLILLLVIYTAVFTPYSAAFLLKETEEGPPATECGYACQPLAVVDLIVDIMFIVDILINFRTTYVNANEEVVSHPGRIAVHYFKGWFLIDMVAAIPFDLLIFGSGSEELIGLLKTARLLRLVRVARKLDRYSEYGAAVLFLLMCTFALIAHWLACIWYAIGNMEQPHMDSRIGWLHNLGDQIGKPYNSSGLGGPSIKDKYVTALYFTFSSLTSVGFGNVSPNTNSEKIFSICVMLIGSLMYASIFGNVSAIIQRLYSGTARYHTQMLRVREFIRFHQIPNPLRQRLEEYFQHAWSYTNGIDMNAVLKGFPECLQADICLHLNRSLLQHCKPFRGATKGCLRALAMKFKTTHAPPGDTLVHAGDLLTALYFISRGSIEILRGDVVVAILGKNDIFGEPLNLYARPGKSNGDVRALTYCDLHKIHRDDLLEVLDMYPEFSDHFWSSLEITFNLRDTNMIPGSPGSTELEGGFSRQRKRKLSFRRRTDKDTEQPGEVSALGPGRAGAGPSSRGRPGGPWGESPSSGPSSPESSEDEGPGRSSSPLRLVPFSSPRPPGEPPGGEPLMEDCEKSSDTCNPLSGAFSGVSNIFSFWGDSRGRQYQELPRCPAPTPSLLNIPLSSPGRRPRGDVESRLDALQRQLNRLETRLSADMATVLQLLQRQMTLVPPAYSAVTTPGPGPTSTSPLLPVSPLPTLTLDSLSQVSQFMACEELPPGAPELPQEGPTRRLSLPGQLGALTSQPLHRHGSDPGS

Compared with O=C(O)c1ccc(NC(=O)c2cccc(N3C(=O)C4C5CCC(C5)C4C3=O)c2)cc1 (stereo not shown), O=C(Nc1ccccc1)c1ccc2c(c1)OCCO2 is lower in “hERG current change (%, negative = inhibition) at 1uM” value: 19.5% for the first, 13.1% for the second.

Going from O=C(O)C1=CC[C@@H](c2ccc(Cl)cc2)N(S(=O)(=O)c2ccc(Cl)cc2)[C@H]1c1ccccc1 to O=C(c1c(F)cccc1F)N1CCCC(c2nc(-c3ccc(Cl)cc3)no2)C1 (stereo not shown), the “hERG current change (%, negative = inhibition) at 1uM” value rises from 5.54% to 6.25%.

Going from O=C(CCN1C(=O)COc2ccccc21)NCCC1=CCCCC1 to O=C(CSc1nnc(CNC(=O)c2ccccc2F)o1)NC1CCCCC1, the “hERG current change (%, negative = inhibition) at 1uM” value rises from 6.68% to 22.7%.

First: C(#CCN1CCCC1)CC(c1ccccc1)c1ccccc1.Cl
Second: O=c1[nH]c(-c2ccccc2)c(-c2ccccc2)[nH]1
The “hERG current change (%, negative = inhibition) at 1uM” value of the first is lower: -23.5% for the first, 13.3% for the second.

Compared with CCc1nc(SCC(=O)Nc2cccc(C(F)(F)F)c2)c2c(=O)n(C)c(=O)n(C)c2n1, CCOCCCn1c(SCC(=O)NC(C)(C)C)nc2ccccc2c1=O is higher in “hERG current change (%, negative = inhibition) at 1uM” value: 7.08% for the first, 10.9% for the second.

Going from COc1c(C(=O)Nc2ccccc2N2CCOCC2)cc2ccccc2c1Br to O=c1c2ccccc2[se]n1-c1ccccc1, the “hERG current change (%, negative = inhibition) at 1uM” value falls from 24.1% to 22.4%.

Compared with CC1CN(CCOc2ccc(Cl)c(Cl)c2)CC(C)O1.O=C(O)C(=O)O (stereo not shown), Cl.O=C(COc1ccc(Cl)cc1Cl)NCCCn1ccnc1 is lower in “hERG current change (%, negative = inhibition) at 1uM” value: 3.66% for the first, -36.2% for the second.

Compared with CSc1nnc(Cn2c(=O)sc3ccccc32)n1CCc1ccccc1, COCCn1c(Cc2ccccc2)nnc1SCc1nc2ccccc2c(=O)[nH]1 is higher in “hERG current change (%, negative = inhibition) at 1uM” value: 0.53% for the first, 4.76% for the second.

First: COc1cc2c(cc1OC)CN(C(=S)Nc1cccc(Cl)c1C)CC2
Second: COc1ccc(CN2CCNC(=O)C2CC(=O)NC2Cc3ccccc3C2)c(OC)c1 (stereo not shown)
The “hERG current change (%, negative = inhibition) at 1uM” value of the first is lower: 2% for the first, 29.3% for the second.

Going from CCn1cc(C(=O)N[C@@H](CCSC)C(=O)NCCO)c(=O)c2cc3c(cc21)OCO3 to CCn1nc(C(=O)O)c(=O)c2cc3c(cc21)OCO3, the “hERG current change (%, negative = inhibition) at 1uM” value falls from 12.8% to 12%.

Compared with O=C(COc1ccc(Cl)cc1)Nc1nc(-c2ccncc2)cs1, CC(C)c1ccc(NC2CCCN(C(=O)c3ccc4nccnc4c3)C2)cc1 (stereo not shown) is lower in “hERG current change (%, negative = inhibition) at 1uM” value: 12.9% for the first, 4.9% for the second.

First: Cc1cccc(NC(=S)NC2CCCC2)n1
Second: O=C(Nc1c2c(nn1-c1cccc(Cl)c1)CS(=O)(=O)C2)C1CC1
The “hERG current change (%, negative = inhibition) at 1uM” value of the first is higher: -1.16% for the first, -16.9% for the second.

First: COCCNC(=O)/C(C#N)=C/c1cc(C(C)C)c(OC)cc1C
Second: CCOC(=O)Cc1[nH]nc2c1C(c1ccsc1)C(C#N)=C(N)O2 (stereo not shown)
The “hERG current change (%, negative = inhibition) at 1uM” value of the first is higher: 17.1% for the first, 4.93% for the second.

Compared with Cl.O=C(CN1CCCCCC1)N1c2ccccc2Sc2ccc(C(F)(F)F)cc21, CC(C)(CN1CCCC1)NS(=O)(=O)c1ccc(Cl)cc1 is higher in “hERG current change (%, negative = inhibition) at 1uM” value: 7.57% for the first, 26.4% for the second.

First: CCNC(=S)N(Cc1c(C)noc1C)c1ccccc1
Second: CCOc1ccccc1C1C(C(N)=O)=C(C)Nc2nc(-c3ccccc3Cl)nn21 (stereo not shown)
The “hERG current change (%, negative = inhibition) at 1uM” value of the first is lower: 1.7% for the first, 6.39% for the second.

Compared with CCCCOC(=O)c1ccc(NC(=O)C(=O)CC(=O)c2ccc(OC)cc2)cc1, O=C(CNC(=O)c1ccc(F)cc1)N/N=C/c1cn[nH]c1-c1ccccc1 is higher in “hERG current change (%, negative = inhibition) at 1uM” value: 6.37% for the first, 11.1% for the second.

First: CC(C)NC(=O)CC(=O)N/N=C/c1ccccc1F
Second: O=C(O)/C=C/C(=O)Nc1c(F)cccc1F
The “hERG current change (%, negative = inhibition) at 1uM” value of the first is higher: 15.8% for the first, 9.63% for the second.

First: CCOC(=O)C1=C(N)OC2=C(C(=O)CC(C)(C)C2)C12C(=O)Nc1ccccc12 (stereo not shown)
Second: Cc1ccc(NC(=O)CSC2=C(C#N)C(c3ccc4c(c3)OCO4)C3=C(CCCC3=O)N2)c(C)c1 (stereo not shown)
The “hERG current change (%, negative = inhibition) at 1uM” value of the first is higher: 18.9% for the first, -12.8% for the second.

First: CCc1ccc(N2C(=O)NC(=O)C(CCc3ccncc3)(CCc3ccncc3)C2=O)cc1
Second: COc1ccc(-c2nc(Cn3c(SCc4ccccc4F)nc4ccncc43)c(C)o2)cc1
The “hERG current change (%, negative = inhibition) at 1uM” value of the first is lower: -41.1% for the first, 9.27% for the second.

Going from O=S(=O)(c1cccc(-c2csc(N/N=C/c3ccco3)n2)c1)N1CCOCC1 to Cn1c(CCC(=O)O)nc2cc(S(=O)(=O)N3CCCCC3)ccc21, the “hERG current change (%, negative = inhibition) at 1uM” value falls from 11.8% to 7.58%.

Going from COC(=O)c1sc(S(=O)(=O)N2CCC(C(=O)O)CC2)c(C(=O)OC)c1C to COc1ccc(CCNC(=O)C2CC2)cc1, the “hERG current change (%, negative = inhibition) at 1uM” value falls from 8.84% to 8.37%.

In the case of COc1cccc(C2CC(c3cccs3)=NN2C(=O)CSc2nc3ccccc3o2)c1OC (stereo not shown), the “hERG current change (%, negative = inhibition) at 1uM” value is reported as 9.23%.

From publication PMC4336329 (PLoS ONE, 2015)
